Among all 310,000 compounds or so, about 2,200 (0.71%) showed an effect of 50% or more. The effect is printed as a negative number. This is one part of the list.

The target of this experiment is human ether-à-go-go-related gene (hERG) potassium channel (human, UniProt Q12809). Kind of experiment: primary screen, population patch clamp on CHO cells stably expressing hERG.
Sequence of human ether-à-go-go-related gene (hERG) potassium channel (Q12809 whole entry, looked up): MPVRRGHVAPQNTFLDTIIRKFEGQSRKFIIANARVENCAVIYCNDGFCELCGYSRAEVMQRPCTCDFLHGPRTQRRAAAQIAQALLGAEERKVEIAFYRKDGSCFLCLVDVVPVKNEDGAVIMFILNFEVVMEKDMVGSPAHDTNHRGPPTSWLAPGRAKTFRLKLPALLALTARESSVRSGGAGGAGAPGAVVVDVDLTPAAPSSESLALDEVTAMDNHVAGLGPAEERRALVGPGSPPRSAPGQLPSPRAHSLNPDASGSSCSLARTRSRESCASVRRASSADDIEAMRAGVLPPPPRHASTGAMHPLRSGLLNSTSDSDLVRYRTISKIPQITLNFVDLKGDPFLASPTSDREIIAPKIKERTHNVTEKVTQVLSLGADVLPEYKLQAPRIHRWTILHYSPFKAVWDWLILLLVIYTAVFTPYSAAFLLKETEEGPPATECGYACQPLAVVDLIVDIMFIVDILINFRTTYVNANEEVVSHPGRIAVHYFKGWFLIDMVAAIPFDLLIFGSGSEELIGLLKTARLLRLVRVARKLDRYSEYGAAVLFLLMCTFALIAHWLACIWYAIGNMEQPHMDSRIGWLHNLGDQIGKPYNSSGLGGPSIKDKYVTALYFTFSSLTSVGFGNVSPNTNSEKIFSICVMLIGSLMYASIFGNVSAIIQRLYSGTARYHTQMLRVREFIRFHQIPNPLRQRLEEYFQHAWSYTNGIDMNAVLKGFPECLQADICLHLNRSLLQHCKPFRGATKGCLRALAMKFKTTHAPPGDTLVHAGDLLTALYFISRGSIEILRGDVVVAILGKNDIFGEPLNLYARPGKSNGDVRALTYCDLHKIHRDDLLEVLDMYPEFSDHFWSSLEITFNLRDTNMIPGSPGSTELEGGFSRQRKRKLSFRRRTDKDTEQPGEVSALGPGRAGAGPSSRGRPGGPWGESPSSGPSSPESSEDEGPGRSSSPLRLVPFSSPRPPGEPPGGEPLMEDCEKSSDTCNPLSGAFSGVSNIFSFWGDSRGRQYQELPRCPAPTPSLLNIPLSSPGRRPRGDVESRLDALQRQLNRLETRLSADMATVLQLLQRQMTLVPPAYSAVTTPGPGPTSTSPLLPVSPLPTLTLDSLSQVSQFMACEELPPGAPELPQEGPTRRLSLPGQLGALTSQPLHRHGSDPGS
On to `Cc1ccccc1Nc1c(F)c(F)c(F)c(F)c1C(=O)O`, for which the “hERG current change (%, negative = inhibition) at 1uM” value is listed as 11.4%.
On to `CCCC1C(c2ccco2)NC(c2ccco2)CC1(C)O.O=C(O)C(=O)O` (stereo not drawn), for which the “hERG current change (%, negative = inhibition) at 1uM” value came to 2.61%.
To `CCOc1cc(/C=C/C(=O)O)ccc1OCCO` belongs 8.1%; to `CC(C)CCNC(=O)C(CC(C)C)N(Cc1ccc2c(c1)OCO2)C(=O)c1snc(C(N)=O)c1N` (stereo not drawn), 3.45%.
With `CCOc1ccccc1NC(=O)NS(=O)(=O)c1ccc(C)cc1` the figure was 13.3%.
Regarding `COc1ccc(C)cc1NC(=O)CN(C)S(=O)(=O)c1ccc2c(c1)CCCN2C(C)=O`, the “hERG current change (%, negative = inhibition) at 1uM” value is recorded as 11.6%.
To `CC(C)OCCCN1CN(S(=O)(=O)c2cccc(Cl)c2)c2nc3ccccc3nc21` belongs 1.59%.
With `COc1ccc(C(c2nnnn2Cc2ccccc2)N2CCN(c3nc4ccccc4s3)CC2)cc1` (stereo not drawn) the figure was 9.85%; with `CCOc1ccccc1CNC(=O)CCNC(=O)Cn1ccc2ccccc2c1=O`, 3.23%.
As for `CS(=O)(=O)Nc1ccc(N2CCCCC2)c(Cl)c1`, the “hERG current change (%, negative = inhibition) at 1uM” value was 5.33%.
With `O=C(CSc1cccs1)NCCc1ccccc1` the figure was 13.4%; with `O=C(CN1C(=O)CSC1=O)c1ccccc1`, 6.5%; with `C/C=C/c1ccc(OCC(O)CNCC(c2ccc(OC)cc2)N(C)C)c(OC)c1.O=C(O)C(=O)O` (stereo not drawn), 6.2%.
`CCOc1ncccc1C(=O)OCC(=O)Nc1nnc(-c2ccccc2)o1`: the “hERG current change (%, negative = inhibition) at 1uM” value came out at 0.21%.
To `CCn1c(SCc2nc3scc(-c4ccccc4)c3c(=O)[nH]2)nnc1-c1cccs1` belongs -2.8%; to `Cc1cccc(N2C(=O)c3cccc4c(N5CCCCC5)c([N+](=O)[O-])cc(c34)C2=O)c1C`, 6.41%.
To `O=C(COc1ccc(Cl)cc1)N/N=C/CCc1ccccc1` belongs 3.02%; to `CC1Oc2ccccc2N(CC(=O)NCc2cccs2)C1=O` (stereo not drawn), 5.16%; to `Cc1cccc(C)c1NC(=O)CN(C)C(=O)c1ccc2c(=O)n3c(nc2c1)CCC3`, 11.9%.
With `O=[N+]([O-])C1C(c2ccccc2)=NOC1c1ccccc1O` (stereo not drawn) the figure was 12.8%; with `O=C(CCCN1C(=O)/C(=C/c2cccs2)SC1=S)Nc1ccc(C(=O)O)cc1`, 9.33%; with `O=C(Nc1ccc2c(c1)CCC2)c1ccc(Cl)nc1`, 1.39%.
`COc1cccc(N2CCN(C(=O)CCCCCn3c(=S)[nH]c4cc5c(cc4c3=O)OCO5)CC2)c1`: the “hERG current change (%, negative = inhibition) at 1uM” value stood at 17.8%.
To `Cc1ccc(-c2nn(-c3ccccc3)cc2CN(C)C(=O)CCC(=O)O)cc1C` belongs 15.3%; to `Cc1cc2cc(C)c3nnc(SCC(=O)Nc4ccc(S(=O)(=O)N5CCCCC5C)cc4)n3c2cc1C` (stereo not drawn), 13.2%; to `O=C(N/N=C/c1cc2c(cc1Br)OCO2)c1c[nH]c2ccccc12`, 16.1%.
To `CCn1cc([N+](=O)[O-])c(C(=O)N2CCCCCC2)n1` belongs 12.7%; to `Cc1ccc(-c2noc(CCC(N)=O)n2)cc1`, 0.49%; to `COc1ccc(CCCc2nnc(SCC(=O)NN)o2)cc1`, 13.9%.
To `COc1ccc(/C=N/Nc2ccccn2)c(OC)c1OC` belongs 8.66%; to `O=C(c1ccccc1)c1c2c(cc3sc4ccccc4[n+]13)-c1cccc3cccc-2c13.[Br-]`, -47.1%; to `CCCC(=O)NNC(=O)CCC(=O)NCc1ccccc1`, 14.5%.
For the compound `O=C(NCCc1ccccc1)c1ccc2c(c1)OCCCO2`, the “hERG current change (%, negative = inhibition) at 1uM” value came to 16.7%.
With `CN(CCO)c1cc(N(C)CCO)c([N+](=O)[O-])cc1[N+](=O)[O-]` the figure was 11.8%.
With `Cc1nnc(N/N=C/C2CC=CCC2)[nH]c1=O` (stereo not drawn) the figure was 9.52%.
To `Cn1c(NC(=O)C[n+]2cc(-c3ccc(Cl)c(Cl)c3)n3c2CCC3)cc(=O)n(C)c1=O.[Cl-]` belongs 13.4%; to `Cc1cc(=O)[nH]c(N/N=C/c2ccc(N(C)C)cc2)n1`, 3.37%; to `Cc1ccc(NCC(O)C(O)C(O)CO)cc1C` (stereo not drawn), 13.8%.
Regarding `Nc1nccnc1C(=O)OCC(=O)N1CCN(S(=O)(=O)c2ccc(Cl)cc2)CC1`, the “hERG current change (%, negative = inhibition) at 1uM” value is recorded as -10.1%.
With `CC1CCCCC1NC(=O)CSc1nnc(-c2ccccc2)n1N` (stereo not drawn) the figure was 11.7%.
Turning to `O=C(Nc1ccc(F)cc1)c1cc(-c2ccccn2)nc2c(Cl)cccc12`, the “hERG current change (%, negative = inhibition) at 1uM” value amounted to 12.7%.
To `COc1cccc(OCC(=O)Nc2ccncc2)c1` belongs 11.9%; to `CC1CCC2(CC1)N=C(N)Nc1nc3ccccc3n12` (stereo not drawn), -7.03%.
To `Cc1cc2[nH]c(=O)c(=O)[nH]c2cc1S(=O)(=O)N1CCN(c2ccccc2F)CC1` belongs 9.75%; to `Cc1ccc(-n2nnnc2-c2cccs2)cc1[N+](=O)[O-]`, 8.88%.
With `NC(=O)NOCc1cccc(Cl)c1` the figure was 12.7%; with `O=c1c2ccccc2cnn1Cc1ccc(Cl)c(Cl)c1`, 14.6%.
For the compound `CN(c1ccccc1)c1nc(-n2ccnc2)nc(-n2ccnc2)n1`, the “hERG current change (%, negative = inhibition) at 1uM” value is recorded as -21.3%.
To `Cc1noc(C)c1C(=O)Nc1sc(C)c(-c2ccccc2)c1C#N` belongs 5.63%; to `CCOC(=O)CNC(=O)CNC(=O)c1ccc(OC)cc1`, 10.3%.
With `CN(C)C(/C=C/Nc1ccc(Br)cc1)=C(C#N)C#N` the figure was -3.22%; with `O=C(c1ccc2c(c1)OCO2)N1CCC2(CC1)Oc1ccc(Cl)cc1C(=O)C21CC(c2cccnc2)=NO1` (stereo not drawn), -1.76%.
To `COc1ccc2[nH]c(=O)c(CN(C(=O)C(C)C)c3ccccc3OC)cc2c1` belongs 8.48%; to `CC(=O)NCCNC(=O)C1CCCCN1S(=O)(=O)c1ccccc1` (stereo not drawn), 0.532%.
With `COc1cccc(C(=O)OCC(=O)c2c[nH]c3ccccc23)c1OC`, the “hERG current change (%, negative = inhibition) at 1uM” value worked out at 9.28%.
To `CC(=O)n1cc(/C=N/NC(=O)c2cccc(O)c2)c2ccccc21` belongs 13.7%; to `Cc1ccc(S(=O)(=O)N(CC(=O)NCc2ccccn2)c2ccc(Cl)cc2)cc1`, -0.861%.

(Values after PMC4336329 (PLoS ONE, 2015).)
